{"source": "paper PMC7819943", "about": "“Rice protein-binding microarrays: a tool to detect cis-acting elements near promoter regions in rice”", "note": "Some of the results follow."}
{"target": "T1, OsWOX13 (Oryza sativa, UniProt Q5QMM3 1-267)", "T1 sequence": "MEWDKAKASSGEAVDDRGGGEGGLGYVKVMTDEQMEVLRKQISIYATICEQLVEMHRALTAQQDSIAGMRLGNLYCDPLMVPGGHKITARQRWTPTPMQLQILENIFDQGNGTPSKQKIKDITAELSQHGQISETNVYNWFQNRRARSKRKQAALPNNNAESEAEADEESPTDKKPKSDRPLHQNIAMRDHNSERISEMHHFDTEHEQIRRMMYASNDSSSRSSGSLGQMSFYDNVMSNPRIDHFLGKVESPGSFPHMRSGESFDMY", "assay": "protein-binding microarray (RPBM); PBS, 2% BSA, 51.3 ng/ul salmon testes DNA, 50 uM zinc acetate, 200 nM TF, 25 C, 1 h; high values mean tight binding", "details": "protein: recombinant; tags: N-terminal polyhistidine and DsRed monomer fusion (pET32a); label: CyDye5-dUTP incorporated in the synthesized complementary strand; 3' TTTTT single-stranded linker to array surface; dsDNA, one strand shown", "in_short": "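An Axon 4000B scanner gave the binding signal as per-feature fluorescence intensity in arbitrary units. This followed washing of a custom Agilent array that had been incubated for 1 h at 25 °C with 200 nM protein in PBS, 2% BSA, salmon testes DNA and 50 µM zinc acetate. The proteins were transcription factors fused at the N-terminus to polyhistidine and DsRed, expressed in E. coli BL21-CodonPlus and purified on Ni–NTA.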"}
{"sequence": "TACACAGATTGCGTGTAAATTGCGATACGAATCTTTTAAGCGGAGTCACCTAGTGCAG", "binding signal": "10700 fluorescence intensity (a.u.)"}
{"sequence": "TTAATTCATGATTTGCTACAGTGATGCTACAGTAATCAGCCGGAGTCACCTAGTGCAG", "binding signal": "22100 fluorescence intensity (a.u.)"}
{"sequence": "GGTGATGGACTGATGGCTATGGTTATGTCTCTGTTGCTGTCGGAGTCACCTAGTGCAG", "binding signal": "34400 fluorescence intensity (a.u.)"}
{"sequence": "TGCAGTTTACACTTAAATTGATAATATAAGCATGATGTATCGGAGTCACCTAGTGCAG", "binding signal": "14800 fluorescence intensity (a.u.)"}
{"sequence": "GATTCCCTTCTTTTCTTTGGTTGATTTCTTTCTGTATTTCCGGAGTCACCTAGTGCAG", "binding signal": "5880 fluorescence intensity (a.u.)"}
{"sequence": "CACTAACCCTAATAATTACACCGCTGTACATTTGAAAGGACGGAGTCACCTAGTGCAG", "binding signal": "4090 fluorescence intensity (a.u.)"}
{"sequence": "ATTGATTGGCCCAAGATATCCATCGGCATCGGCGCCGGCGCGGAGTCACCTAGTGCAG", "binding signal": "13900 fluorescence intensity (a.u.)"}
{"sequence": "TGGTATGATTTGAAATGGTATTAATCTGAATTGTCCCTAACGGAGTCACCTAGTGCAG", "binding signal": "11500 fluorescence intensity (a.u.)"}
{"sequence": "TTAAATTTAATTCCTCGCGAGGTGCTCCCACACTGTGGAACGGAGTCACCTAGTGCAG", "binding signal": "10500 fluorescence intensity (a.u.)"}
{"sequence": "TGTAATTAGTACTTGAAAGAATTAACTTGTTGAACATGATCGGAGTCACCTAGTGCAG", "binding signal": "36100 fluorescence intensity (a.u.)"}
{"sequence": "AGTAGGATTGGTGTTGATGGCCCAAGCAGCTCTAAGGCGACGGAGTCACCTAGTGCAG", "binding signal": "8570 fluorescence intensity (a.u.)"}
{"sequence": "TTCGCCAATCTAGTAATTAATCTAGTACATGCGTTGTTCCCGGAGTCACCTAGTGCAG", "binding signal": "15800 fluorescence intensity (a.u.)"}
{"sequence": "AAAGATTGAACATCCTTTAGTAATATCAAGGGTGTGTTTACGGAGTCACCTAGTGCAG", "binding signal": "14100 fluorescence intensity (a.u.)"}
{"sequence": "AGTTCGTAATTAAAATGTGGTACGGTAAAGTGAATCAACCCGGAGTCACCTAGTGCAG", "binding signal": "7060 fluorescence intensity (a.u.)"}
{"sequence": "GATCAATGATATATACAATCTTATTAGCAAGATACGCATCCGGAGTCACCTAGTGCAG", "binding signal": "3640 fluorescence intensity (a.u.)"}
{"sequence": "ATTTATAATACTAAATTAGTTAATTAAATATATTTTCATACGGAGTCACCTAGTGCAG", "binding signal": "8210 fluorescence intensity (a.u.)"}
{"sequence": "TCGTTGTGACTGTGATGAGAACTATGTGCCGCCACAAGCTCGGAGTCACCTAGTGCAG", "binding signal": "4260 fluorescence intensity (a.u.)"}
{"sequence": "TTCATAACTACAGTAAACTGACCAACGCAAACCGCATCGACGGAGTCACCTAGTGCAG", "binding signal": "4500 fluorescence intensity (a.u.)"}
{"sequence": "TGTTGTTGTGGTGGTGGTGGTGGTGGTAGTGCGTGAGTGACGGAGTCACCTAGTGCAG", "binding signal": "7420 fluorescence intensity (a.u.)"}
{"sequence": "ATGGGTGATTAATCCTAGAATAATGTATCTAGACAGAATCCGGAGTCACCTAGTGCAG", "binding signal": "4120 fluorescence intensity (a.u.)"}
{"sequence": "GGGGATTAACTGCCGTTGTATAGATCAGACAGATAGACGACGGAGTCACCTAGTGCAG", "binding signal": "7980 fluorescence intensity (a.u.)"}
{"sequence": "CGTGCTAATTAGGATTATTATTTGCGACTAATCACTACTCCGGAGTCACCTAGTGCAG", "binding signal": "38200 fluorescence intensity (a.u.)"}
{"sequence": "GCGAAATTAGTAATTTGTTTTGTTATTAATCTATGTTTAACGGAGTCACCTAGTGCAG", "binding signal": "36400 fluorescence intensity (a.u.)"}
{"sequence": "AATTCTAAAATGATTAAACTTAAGCCATATATAATCACACCGGAGTCACCTAGTGCAG", "binding signal": "4710 fluorescence intensity (a.u.)"}
{"sequence": "CTTAACTGTTATATTCTTTATGTTGGAATCTGTCCACGTACGGAGTCACCTAGTGCAG", "binding signal": "14800 fluorescence intensity (a.u.)"}
{"sequence": "ACTTCAGGAGATTGAAAACATTAGCTTTGGATCAGAGTGTCGGAGTCACCTAGTGCAG", "binding signal": "6890 fluorescence intensity (a.u.)"}
{"sequence": "TTTCTCAATGATTATATGGGTGAATTGCAGAGAATATACTCGGAGTCACCTAGTGCAG", "binding signal": "14400 fluorescence intensity (a.u.)"}
{"sequence": "GTATCAAATCTTGCCCATGATTTGACACTACCAATGATTTCGGAGTCACCTAGTGCAG", "binding signal": "5680 fluorescence intensity (a.u.)"}
{"sequence": "TATGATTATTAGAAATTTTAACAATTTTAAATCTTGCATGCGGAGTCACCTAGTGCAG", "binding signal": "26300 fluorescence intensity (a.u.)"}
{"sequence": "GATAAATTGACAATATTACCAAAATTTTAGTAAGATTGGCCGGAGTCACCTAGTGCAG", "binding signal": "64900 fluorescence intensity (a.u.)"}
{"sequence": "TACTAGTACTAGTTAATTGGGCTTGGAAAAGACGTACAGGCGGAGTCACCTAGTGCAG", "binding signal": "3380 fluorescence intensity (a.u.)"}
{"sequence": "CTTGACTGGCTTGTTCTCTCTCTCTCCCAGTAACCGATCTCGGAGTCACCTAGTGCAG", "binding signal": "37300 fluorescence intensity (a.u.)"}
{"sequence": "CCCCTTTGATTAGACCGAAAGCATCTTCTTTTGACAGTCACGGAGTCACCTAGTGCAG", "binding signal": "17400 fluorescence intensity (a.u.)"}
{"sequence": "TCTCTCTCTAATTAGTGGCTGAGCATTTAGAAGAGGTGGCCGGAGTCACCTAGTGCAG", "binding signal": "11000 fluorescence intensity (a.u.)"}
{"sequence": "ATCGGATTGGATCGGATATGGAGAGGAGGGAGGACGCGCTCGGAGTCACCTAGTGCAG", "binding signal": "3710 fluorescence intensity (a.u.)"}
{"sequence": "AATGTGATTGTCCACCCTGCAGCAACAAGCACCTTGAGCACGGAGTCACCTAGTGCAG", "binding signal": "19600 fluorescence intensity (a.u.)"}
{"sequence": "ATTAATGAGAGGATAATTTAGAACTCCATAGAATTCATCTCGGAGTCACCTAGTGCAG", "binding signal": "13100 fluorescence intensity (a.u.)"}
{"sequence": "ATATTATTATATTATAATTATACTGTATTTATATCTGATACGGAGTCACCTAGTGCAG", "binding signal": "9100 fluorescence intensity (a.u.)"}
{"sequence": "GAAATTGAAGGAGTTGTAGCTATCCAAATACATCAGCTTCCGGAGTCACCTAGTGCAG", "binding signal": "6770 fluorescence intensity (a.u.)"}
{"sequence": "ATAATTAATCCATGATTAGCCTATGTGATGCTGTAGTAAACGGAGTCACCTAGTGCAG", "binding signal": "29100 fluorescence intensity (a.u.)"}
{"sequence": "ACCAAATTATCACTTTGCATCACGGCAACTATTGTTGCTCCGGAGTCACCTAGTGCAG", "binding signal": "19500 fluorescence intensity (a.u.)"}
{"sequence": "ATGATCTTGAATGAATGAATGAATGAATACGTTGTCACACCGGAGTCACCTAGTGCAG", "binding signal": "4130 fluorescence intensity (a.u.)"}
{"sequence": "AGATAGATAGATATATTTATCCGAGTCCTCCAAGAACACCCGGAGTCACCTAGTGCAG", "binding signal": "9400 fluorescence intensity (a.u.)"}
{"sequence": "GTACCAATAATGTTGATTATGCGTTTATTATTCTCAATGACGGAGTCACCTAGTGCAG", "binding signal": "10300 fluorescence intensity (a.u.)"}
{"sequence": "GATTTCTTATTGATTGTTGATCCCACGTGAATAGATAGTACGGAGTCACCTAGTGCAG", "binding signal": "12500 fluorescence intensity (a.u.)"}
{"sequence": "TTAAATTGTTAATACCTCTGTATATCATCCGATCTACGTACGGAGTCACCTAGTGCAG", "binding signal": "19600 fluorescence intensity (a.u.)"}
{"sequence": "AGAAATGCAAATCATGGAATTGAGTTCAGCTGGTTAGTTCCGGAGTCACCTAGTGCAG", "binding signal": "4020 fluorescence intensity (a.u.)"}
{"sequence": "GCCTAATTGGGTCGGCATTAGGCCATCCAAACTAGGCCCACGGAGTCACCTAGTGCAG", "binding signal": "29500 fluorescence intensity (a.u.)"}
{"sequence": "CTCTCTAGTAATTATCCATGTGCTCGTCTGGTTGGATTGGCGGAGTCACCTAGTGCAG", "binding signal": "5240 fluorescence intensity (a.u.)"}
{"sequence": "AACTGATGAGTCGTTGATTTTCTGTAAAATTACGAGTTAACGGAGTCACCTAGTGCAG", "binding signal": "28400 fluorescence intensity (a.u.)"}
{"sequence": "AATTGTTAGCCCTTGATTGAGTGGCTGGTGCTCCACGTTTCGGAGTCACCTAGTGCAG", "binding signal": "28800 fluorescence intensity (a.u.)"}
{"sequence": "ATTGATGACCTACCAAAATTTTGGTAGTGCCAAATCTTGGCGGAGTCACCTAGTGCAG", "binding signal": "5320 fluorescence intensity (a.u.)"}
{"sequence": "ACCAATCACCACCGCCCAACGCGCACACGCCCACGCGCTCCGGAGTCACCTAGTGCAG", "binding signal": "4100 fluorescence intensity (a.u.)"}
{"sequence": "TAAAATCAATCAGGTTTCAATATCAATAGGTGTTTTCACTCGGAGTCACCTAGTGCAG", "binding signal": "16300 fluorescence intensity (a.u.)"}
